This note sets out measurements from article PMC7819943, “Rice protein-binding microarrays: a tool to detect cis-acting elements near promoter regions in rice”.

The list shows a part of the results.

This assay deals with T1, OsWOX13 (Oryza sativa, UniProt Q5QMM3 1-267).
T1 sequence: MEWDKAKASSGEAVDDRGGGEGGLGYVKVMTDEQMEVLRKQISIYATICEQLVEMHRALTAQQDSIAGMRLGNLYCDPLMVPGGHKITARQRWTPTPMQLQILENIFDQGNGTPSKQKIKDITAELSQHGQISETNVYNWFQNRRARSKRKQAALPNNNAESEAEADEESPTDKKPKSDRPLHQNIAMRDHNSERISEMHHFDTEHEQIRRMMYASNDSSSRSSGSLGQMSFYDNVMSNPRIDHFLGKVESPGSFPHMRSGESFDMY
The assay can be described thus: protein-binding microarray (RPBM); PBS, 2% BSA, 51.3 ng/ul salmon testes DNA, 50 uM zinc acetate, 200 nM TF, 25 C, 1 h; high values mean tight binding. The settings on record: protein: recombinant; tags: N-terminal polyhistidine and DsRed monomer fusion (pET32a); label: CyDye5-dUTP incorporated in the synthesized complementary strand; 3' TTTTT single-stranded linker to array surface; dsDNA, one strand shown. Put shortly:
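Per-feature fluorescence intensity (arbitrary units), read on an Axon 4000B scanner, is the binding signal. Transcription factors carrying an N-terminal polyhistidine tag and DsRed fusion were expressed in E. coli BL21-CodonPlus and purified on Ni–NTA. A custom Agilent array, made double-stranded by primer extension with Cy5-dUTP and blocked with 2% BSA, was incubated with 200 nM protein in PBS, 2% BSA, salmon testes DNA and 50 µM zinc acetate at 25 °C for 1 h and then washed.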
For “GTGCGTTGATTGCTACTGCGCTCCAACCACTGCGTTAACTCGGAGTCACCTAGTGCAG”, the binding signal was 34700 fluorescence intensity (a.u.).
On to “CCTGGATTCAGTTGATAAATTATGACTGGCATGCCACTGTCGGAGTCACCTAGTGCAG”, for which the binding signal was 4380 fluorescence intensity (a.u.).
For “GGTTGATTGTGAAGTTAATTATTTAACATCTCAATTATAACGGAGTCACCTAGTGCAG” the value was 32800 fluorescence intensity (a.u.).
For “CGCCTAATCACATGGCATCATGCCCATGACAGCCGGGGAACGGAGTCACCTAGTGCAG” the value was 9840 fluorescence intensity (a.u.); for “ACCCTAATTCCATCCACCGCTCGATCCAATCTACCCTCTCCGGAGTCACCTAGTGCAG”, 3910 fluorescence intensity (a.u.); for “TAGCTAGATATGTAACTTATAAATTGATGGCCACACCTTACGGAGTCACCTAGTGCAG”, 4000 fluorescence intensity (a.u.).
For “AGTTTATTTATAAATCATGTTTTATTCGTTAAAATGTCGTCGGAGTCACCTAGTGCAG” the value was 9650 fluorescence intensity (a.u.); for “AGTAATCAAATCCAATCAACACCAACCAAAAGGAACAAGGCGGAGTCACCTAGTGCAG”, 22300 fluorescence intensity (a.u.).
Consider “TTGTAATGGTGAAATCATGTTCAGTTTATTGTCGTACAAACGGAGTCACCTAGTGCAG”, for which the binding signal was 3710 fluorescence intensity (a.u.).
In the case of “TGCATCTCTGTCTGATTGATCAGGCAGGCAGGAAAGTACCCGGAGTCACCTAGTGCAG” it was 20300 fluorescence intensity (a.u.).
For “ATAATGATGGATGCTTATGTCTTATGTCTTCATGCGGTCCCGGAGTCACCTAGTGCAG” the value was 21000 fluorescence intensity (a.u.); for “CATTTCACTTAATGTATAATAGACATCGGCAATCAACTTTCGGAGTCACCTAGTGCAG”, 5190 fluorescence intensity (a.u.); for “GTTCCAATTTCAATTAAACTTTCAATTTTGGCGTTAACTACGGAGTCACCTAGTGCAG”, 14200 fluorescence intensity (a.u.).
For “GGGAGTCGATTAGTTGATTAGGATATAAGCTAAATATACCCGGAGTCACCTAGTGCAG” the value was 6080 fluorescence intensity (a.u.); for “ACAAAATTATGTACCATGACTCCGTGAGCGTAATTTAGTCCGGAGTCACCTAGTGCAG”, 6610 fluorescence intensity (a.u.).
As for “TTTAGACAGTCCCTAAATTAATATCCTACTTTGATTCGGTCGGAGTCACCTAGTGCAG”, the binding signal is 20800 fluorescence intensity (a.u.).
In the case of “ACACGTAAAATACGTGTAATTGGCCGTAGGACACCGGTCGCGGAGTCACCTAGTGCAG” it was 6270 fluorescence intensity (a.u.); in that of “TATGGGATGATTAATTCGATTTCATTTATTCCCACAAGCGCGGAGTCACCTAGTGCAG”, 8050 fluorescence intensity (a.u.); in that of “GATGATTGGTCACAGGAAAATCTAACCAGAAACAATTATTCGGAGTCACCTAGTGCAG”, 30400 fluorescence intensity (a.u.).
For “AACTAATAATTGGCTATATCTCTAACACTAAAACGTGGCTCGGAGTCACCTAGTGCAG” the value was 38600 fluorescence intensity (a.u.); for “GGAGCCAATCACGACATGGTTTCAAGCGTCCCTTTCAGAGCGGAGTCACCTAGTGCAG”, 23600 fluorescence intensity (a.u.).
Regarding “AATTAATTGGTTGGAAGCTTCAGAAGTTTGGTTACATACACGGAGTCACCTAGTGCAG”, the binding signal was 29100 fluorescence intensity (a.u.).
For “GAATGGACTAATTATTTTGCTTGTCAGCACGACGTCAGAACGGAGTCACCTAGTGCAG” the value was 4020 fluorescence intensity (a.u.); for “GAAAATTTAAATTTTAACTGATAAGTATAAACATAAGCGACGGAGTCACCTAGTGCAG”, 39200 fluorescence intensity (a.u.).
Regarding “CCTTTGATTTCCGGGTAATTCGATCAAGGTCCCTTGAGAACGGAGTCACCTAGTGCAG”, the binding signal was 13200 fluorescence intensity (a.u.).
For “TAATTTGATTGCATCGGCTTGAATTTGCTCCTGACATGATCGGAGTCACCTAGTGCAG” the value was 36800 fluorescence intensity (a.u.); for “AGCTGTTCCAATTATGAACTCACTAACTTTACATAGAGGTCGGAGTCACCTAGTGCAG”, 3650 fluorescence intensity (a.u.); for “GGTTGAAGTTGCACTAATTGAAGCTGCAGTCACAGTTGGACGGAGTCACCTAGTGCAG”, 11600 fluorescence intensity (a.u.).
For “AAGATGACAGACTTGGGGATTGCATAGTAGTGATTGTTACCGGAGTCACCTAGTGCAG” the value was 11000 fluorescence intensity (a.u.).
For “AAATCTTAAATAATTGATAAAATAAAGATGTACTCAGTATCGGAGTCACCTAGTGCAG” the value was 22000 fluorescence intensity (a.u.); for “AAGATTTGCATAAGATTTATGATATTCGAATAAACCTTGGCGGAGTCACCTAGTGCAG”, 11500 fluorescence intensity (a.u.).
Consider “AATTCTAATATATTTGATTGTTTCAAAATAAAGTCTTTGCCGGAGTCACCTAGTGCAG”, for which the binding signal is 14700 fluorescence intensity (a.u.).
Regarding “GCAGTTGAATATTGATTAGTTTATCTGACTTGTAGGGAACCGGAGTCACCTAGTGCAG”, the binding signal was 13600 fluorescence intensity (a.u.).
In the case of “ACAAATATGTCATGTATACATAGATAGATAAGATCATACACGGAGTCACCTAGTGCAG” it was 3350 fluorescence intensity (a.u.).
In the case of “CGGAATAATTGGAAGTTTGTGGGTGTAGGAAAGTTCGATGCGGAGTCACCTAGTGCAG” it was 21600 fluorescence intensity (a.u.); in that of “ACAGTTATCATTAGTCCATCACTACACCTACGGCTCATATCGGAGTCACCTAGTGCAG”, 3280 fluorescence intensity (a.u.); in that of “ATGCTGAGATGATTTGCTTTGCTGATCACAAAAGAAAGAACGGAGTCACCTAGTGCAG”, 3330 fluorescence intensity (a.u.).
In the case of “CCGTTTACGGGATTGATCATGAAGGCCACGGTAGATCATCCGGAGTCACCTAGTGCAG” it was 5300 fluorescence intensity (a.u.); in that of “TATTGATTTTCTTGCTCTTTCCGGGCTTAATTAAGCTTGCCGGAGTCACCTAGTGCAG”, 10500 fluorescence intensity (a.u.).
In the case of “CATGATTTCTCATCAAATATACAAACTATAGATAAATTACCGGAGTCACCTAGTGCAG”, the binding signal was 10500 fluorescence intensity (a.u.).
In the case of “TCCCAATTTGCCATTAATCTACTCTCACTCATCACAGTCACGGAGTCACCTAGTGCAG” it was 10400 fluorescence intensity (a.u.).
In the case of “GTATCTAAATTATCTGTCAGTTCTGGAGAACAATCAGAAACGGAGTCACCTAGTGCAG” it was 9910 fluorescence intensity (a.u.).
